# Laboratory results published in the supplement of paper PMC3334620.
# In all, about 33,000 sequences were measured (“E-score (-0.5 to 0.5)”: median about -0.054, highest 2% from about 0.35 on). Some of the results follow.
# Target: T1, Stb5 (UniProt P38699)
# T1 sequence: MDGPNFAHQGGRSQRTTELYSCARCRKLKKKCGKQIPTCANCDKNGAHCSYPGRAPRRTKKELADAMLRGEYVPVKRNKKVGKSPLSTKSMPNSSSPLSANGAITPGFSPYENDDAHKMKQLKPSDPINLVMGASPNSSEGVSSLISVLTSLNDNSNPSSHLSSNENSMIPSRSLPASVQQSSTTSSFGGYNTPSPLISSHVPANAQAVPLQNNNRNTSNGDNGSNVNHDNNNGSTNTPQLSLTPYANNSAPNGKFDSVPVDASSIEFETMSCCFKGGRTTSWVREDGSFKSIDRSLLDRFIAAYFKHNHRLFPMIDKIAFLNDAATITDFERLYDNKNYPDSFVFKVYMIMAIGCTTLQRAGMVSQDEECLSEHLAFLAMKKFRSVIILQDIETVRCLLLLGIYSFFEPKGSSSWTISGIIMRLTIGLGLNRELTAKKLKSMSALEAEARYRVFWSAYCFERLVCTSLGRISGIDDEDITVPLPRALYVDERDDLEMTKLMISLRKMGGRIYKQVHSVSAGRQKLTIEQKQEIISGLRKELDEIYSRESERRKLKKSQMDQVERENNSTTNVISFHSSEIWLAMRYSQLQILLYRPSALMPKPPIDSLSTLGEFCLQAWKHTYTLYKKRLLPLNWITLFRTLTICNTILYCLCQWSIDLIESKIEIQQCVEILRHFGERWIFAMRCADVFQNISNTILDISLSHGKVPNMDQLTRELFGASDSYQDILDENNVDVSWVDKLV
# Assay: PBM E-score (8-mer binding enrichment) (E-score (-0.5 to 0.5)); higher = stronger / more preferred TF binding; most listed sequences are background and not binding sites
# Conditions: protein concentration: 200 nM; construct: GST-full length
# Summary of the method: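 E-scores (a modified Wilcoxon-Mann-Whitney statistic) were assigned by the Universal PBM Analysis Suite to every ungapped eight-base word pooled with its reverse complement. The input came from universal all-10-mer Agilent arrays made double-stranded by primer extension and probed with GST-tagged yeast transcription factors at about 100-200 nM. Fluorescent anti-GST detected bound protein, and masliner normalised the scans.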
row,Sequence,PBM E-score
1,ACCCCCGA,0.371
2,GCATACCA,-0.0403
3,TGGATCAA,-0.108
4,ACGGATGC,0.0495
5,CCAAATCA,-0.181
6,CACGGAGC,0.276
7,GGACGTAA,0.179
8,GGGAACTA,0.172
9,GATGAAGA,-0.0236
10,GGCTCCAA,0.0739
11,AGAGTGGC,-0.176
12,ATCGCATC,0.106
13,GAGCCCGC,0.252
14,AGTCTGTA,-0.249
15,ATAGACCC,0.262
16,CAGTCGAC,-0.248
17,GCTCGTCA,-0.108
18,GGCTAACC,-0.128
19,CTAATGTA,-0.0418
20,GAAGAAAC,-0.132
21,ACAGCTAC,-0.1
22,AAACTAAA,-0.246
23,GTAGGTAA,-0.113
24,TAACCACA,-0.129
25,ATAACGCA,-0.0575

row,Sequence,PBM E-score
1,TGTAAACA,-0.126
2,CATCGCTA,-0.254
3,CCGGAAAG,-0.081
4,CGGGAAAG,0.141
5,ACGGTCAT,0.368
6,CTCTGACC,-0.188
7,CTTCTGTC,-0.115
8,CGCATTTC,-0.0467
9,ACATGTAC,-0.0042
10,AATACTAC,-0.0787
11,ACGCTATC,-0.0449
12,AGTAGACG,-0.167
13,GAAGTGTA,-0.112
14,CCTCCGTC,0.195
15,GCGTGCCA,-0.0988
16,ATACTATC,-0.0521
17,GATTCCAA,-0.223
18,CCCAGGAC,-0.0546
19,CGTGTAAG,-0.102
20,TATGACCA,0.096
21,CTGCGCCA,-0.138
22,AACTTCGC,-0.133
23,TGTCCGAA,0.228
24,AGGTTGAG,-0.261
25,ATAATGAC,0.159

row,Sequence,PBM E-score
1,CTGTTTTC,-0.264
2,AACCTCTA,0.00722
3,ACAGGAGC,-0.259
4,CCAGCAGG,-0.146
5,GTGCGGTA,0.367
6,AGCTCAAT,-0.0861
7,AGTAGAGC,-0.115
8,CTTACTCA,-0.0676
9,AACTGGAG,-0.107
10,ATAGAAAC,-0.0221
11,CCGGTACC,0.33
12,AACGTATC,-0.238
13,AGGTCTGC,-0.153
14,GTAACGGA,0.255
15,AAGAGCTT,-0.192
16,GTAAGGAC,0.00921
17,ACAGGACG,0.0271
18,GTTTAAAC,0.34
19,CGTGAGTC,0.0257
20,CAACACGC,-0.278
21,GCTACGGA,0.14
22,CGCCCATC,-0.05
23,AGACTTCG,-0.176
24,ACCCCCAA,-0.209
25,ACGCCTAA,0.0208

row,Sequence,PBM E-score
1,AAACCTCC,0.112
2,AGTTCTGC,-0.00914
3,CGCGTACG,0.0917
4,ACTAATAA,-0.087
5,ATGGGCTC,-0.198
6,ACTCCGAT,0.344
7,CGATCTAG,-0.157
8,AGACCTTG,-0.226
9,CAGGCTGG,0.0281
10,CTAATCCC,0.354
11,AAGCACAC,-0.272
12,CTATCGGA,0.402
13,ATCCCGGC,0.28
14,AAAGCGCG,0.121
15,AAGTCTGC,-0.211
16,ATTTCCGA,0.235
17,TGTTTCAA,-0.048
18,CTAGACCC,0.11
19,GCAATATA,0.0864
20,AACAAAGA,-0.05
21,AAACAGCA,-0.133
22,CTGTGCGA,-0.121
23,CTGGAGTA,-0.211
24,GGTCATAC,0.281
25,GCCCCTCA,-0.0728

row,Sequence,PBM E-score
1,AACGTGAA,-0.183
2,ATCAGCGA,0.0945
3,CTTATGGA,-0.0968
4,ATGATGGA,-0.319
5,ATCGATCG,-0.106
6,AATAGCTC,-0.0735
7,CGACACGC,0.074
8,CAAGCTTC,-0.27
9,ACGGAACA,0.107
10,ACCGGCTG,0.153
11,CTTACTGC,0.101
12,GTTATCAA,-0.23
13,GCGACGTA,-0.0805
14,ACCGCGAA,0.326
15,CATACCCC,0.235
16,CCAATAAC,-0.0267
17,ATCTAGAC,-0.154
18,CTCGAAGA,-0.213
19,GACTTCCA,-0.177
20,CATCTCAA,-0.158
21,GTCTGAGA,-0.148
22,AAATCTCA,-0.261
23,CAGAATAC,0.0376
24,TGACCGCA,0.236
25,CCCCGCAC,0.236

row,Sequence,PBM E-score
1,AATGTAAC,-0.0255
2,AGCAAATC,-0.135
3,GGAGAGGA,-0.264
4,TAAATGTA,-0.239
5,GAGGGTTA,-0.303
6,AGGGTCAC,-0.193
7,CCAATCCG,0.0719
8,AGATGTTA,0.0114
9,TGAATTCA,0.0863
10,GGACATCA,-0.065
11,AAAAAGTT,-0.194
12,AAACGCCT,-0.156
13,CAGATACG,0.112
14,AGATATGA,-0.0199
15,GATCGTGA,-0.0215
16,CCACGTCA,-0.177
17,CGCTCAGC,-0.0124
18,CGAGTGAA,0.00984
19,CGTCTGCA,-0.0669
20,GAAATGTA,-0.0161
21,TTGCCCAA,-0.115
22,GTCGAGAC,-0.0911
23,CGAGCGAA,-0.0711
24,CGTCGTAG,0.0958
25,CTGAACTA,-0.0792

row,Sequence,PBM E-score
1,GGCGAGAA,-0.0862
2,CCTTGACC,0.103
3,AGTCCGTG,0.282
4,AACTCATG,-0.163
5,GAGGGTCC,0.0444
6,ACGGCACG,0.0824
7,TACTCACA,-0.284
8,CGTATGTA,-0.0286
9,AATTGCAG,-0.106
10,ACCCAGCC,-0.351
11,GCGCCGAA,0.334
12,CATGATCC,0.15
13,GGCGGTCA,0.342
14,TAGTTAAA,0.14
15,CCTACCTA,-0.151
16,AAAGCCGA,0.341
17,CCGTGGGA,-0.0115
18,CAGAGCCC,-0.126
19,AGCTAAGA,-0.0255
20,GAGTCAAA,0.0696
21,ACTGTTGC,-0.0489
22,GCCGACCC,0.267
